# Laboratory results published in article PMC4336329 (PLoS ONE, 2015).
# The campaign covered roughly 310,000 compounds. About 14,000 (4.5%) showed an effect of 50% or more. The effect is printed as a negative number. This is one part of the list.
# Target: human ether-à-go-go-related gene (hERG) potassium channel (human, UniProt Q12809)
# Experiment: primary screen, population patch clamp on CHO cells stably expressing hERG
# 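Further: peak tail current of the secondary pulse compared with the same well before compound.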
# human ether-à-go-go-related gene (hERG) potassium channel, sequence (Q12809 whole entry, looked up): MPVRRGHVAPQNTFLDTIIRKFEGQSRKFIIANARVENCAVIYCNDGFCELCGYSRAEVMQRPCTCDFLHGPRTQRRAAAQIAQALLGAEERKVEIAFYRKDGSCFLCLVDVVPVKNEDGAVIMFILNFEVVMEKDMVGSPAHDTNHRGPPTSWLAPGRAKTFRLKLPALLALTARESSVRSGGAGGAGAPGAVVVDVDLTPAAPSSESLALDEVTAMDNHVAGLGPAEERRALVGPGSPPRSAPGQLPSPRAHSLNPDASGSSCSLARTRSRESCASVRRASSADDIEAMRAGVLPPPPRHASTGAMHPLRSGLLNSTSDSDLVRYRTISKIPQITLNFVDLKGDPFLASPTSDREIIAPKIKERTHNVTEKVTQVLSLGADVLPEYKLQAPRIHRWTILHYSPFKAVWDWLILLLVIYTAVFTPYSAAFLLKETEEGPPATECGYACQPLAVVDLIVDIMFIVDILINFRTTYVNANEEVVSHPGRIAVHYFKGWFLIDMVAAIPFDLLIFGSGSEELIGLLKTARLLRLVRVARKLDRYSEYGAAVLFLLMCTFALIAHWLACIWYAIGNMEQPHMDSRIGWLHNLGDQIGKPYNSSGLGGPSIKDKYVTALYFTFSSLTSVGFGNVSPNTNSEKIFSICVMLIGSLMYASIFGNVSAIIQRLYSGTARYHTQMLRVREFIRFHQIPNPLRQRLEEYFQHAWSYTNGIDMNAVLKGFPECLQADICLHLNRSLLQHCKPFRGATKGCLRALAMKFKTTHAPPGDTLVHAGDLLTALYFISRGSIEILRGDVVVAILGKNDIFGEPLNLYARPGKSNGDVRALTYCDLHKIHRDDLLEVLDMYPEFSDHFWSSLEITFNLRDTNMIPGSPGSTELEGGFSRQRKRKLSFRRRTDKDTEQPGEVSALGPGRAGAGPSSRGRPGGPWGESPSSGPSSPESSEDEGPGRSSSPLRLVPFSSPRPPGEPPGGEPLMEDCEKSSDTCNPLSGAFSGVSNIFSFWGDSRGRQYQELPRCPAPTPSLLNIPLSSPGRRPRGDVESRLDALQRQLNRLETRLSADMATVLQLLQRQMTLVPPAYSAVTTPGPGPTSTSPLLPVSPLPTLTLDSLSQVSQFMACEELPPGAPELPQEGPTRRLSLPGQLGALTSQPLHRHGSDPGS
row,SMILES,"hERG current change (%, negative = inhibition) at 10uM"
1,COc1cc(C2CC(c3ccccc3)=NN2c2ccccc2)ccc1OCC(=O)O (stereo not drawn),34.2%
2,O=C(c1ccc2snnc2c1)N1CCSCC1,4.21%
3,CCCC(=O)NC(=S)Nc1cccc(NC(=O)c2ccc(Cl)cc2Cl)c1,11.6%
4,COc1ccc(S(=O)(=O)N2CCOC2CNC(=O)C(=O)NCCN2CCOCC2)cc1OC (stereo not drawn),15%
5,Cc1ccc(O)c(NC(=O)c2ccco2)c1,0.29%
6,COc1ccc(OC)c2nc(-c3ccncc3)ccc12,13.3%
7,CCc1ccc(NS(=O)(=O)c2ccc3[nH]cc(C(=O)NCC4CCCO4)c(=O)c3c2)cc1 (stereo not drawn),15.4%
8,O=C(Nc1ccc(S(=O)(=O)N2CCCc3ccccc32)cc1)C1CCCO1 (stereo not drawn),-42%
9,Cc1ccc(C(=O)N/C(=C\c2ccco2)C(=O)NCCN2CCCCC2)cc1C,-60.1%
10,COC(=O)c1cc(C(=O)CSc2nc(C)cc(C)n2)ccc1O,-2.05%
11,CCN(CC)S(=O)(=O)c1cc(NC(=O)C(C)OC(=O)c2[nH]c(C)c(C(C)=O)c2C)ccc1C (stereo not drawn),8.42%
12,Cc1cccc(C)c1NC(=O)CNc1ncnc2sc(C)c(C)c12,17.8%
13,O=C(C(=O)N1CCOCC1)c1cn(Cc2ccccc2)c2ccccc12,-17.3%
14,S=C(NCCNCc1ccccc1)NC1CCCCC1,1.72%
15,Cc1nnc(SCc2cccc(CSc3nnc(C)s3)c2)s1,-13.4%
16,Cn1c(=O)c2c(ncn2CC(=O)N2CCc3ccccc3C2)n(C)c1=O,-0.268%
17,O=C(COc1ccccc1)N1CCN(C2CCCC2)CC1.O=C(O)C(=O)O,-13.2%
18,CCOc1cc(CN2CCN(CCOCCO)CC2)ccc1OC,13.1%
19,COc1ccc(Cn2c(=O)sc3ccccc32)cc1,-17.8%
20,Cc1cc(C)n(-c2cc(C)c(C)cc2Br)n1,2.72%
21,COc1ccc(OCCSc2nnc3c(Cl)cc(Cl)cn23)cc1,-40.1%
22,O=C(NCc1ccco1)C(=O)NCC1OCCCN1S(=O)(=O)c1ccc(Cl)cc1 (stereo not drawn),-4.41%
23,O=C(OC1CCN(c2ccc([N+](=O)[O-])cc2)CC1)c1ccccc1,-5.88%

row,SMILES,"hERG current change (%, negative = inhibition) at 10uM"
1,CCc1nnc(NS(=O)(=O)c2ccc(NC(=S)NC(=O)c3ccc(OC)c(OC)c3)cc2)s1,12.4%
2,CCNC(=O)c1c(NC(=O)c2cc(-c3cc(C)ccc3O)n[nH]2)sc2c1CCCC2,30.5%
3,Cc1ccc(NC(=O)C2CCCN2C(=O)OCc2ccccc2)cc1C (stereo not drawn),-2.99%
4,O=C(N/N=C/c1ccoc1)c1ccccc1Br,16.9%
5,Cc1cccc(C(=O)NCC(C)NC(=O)c2cccc(C)c2)c1 (stereo not drawn),9.1%
6,O=C(COc1ccccc1[N+](=O)[O-])OC1CCS(=O)(=O)C1 (stereo not drawn),9.26%
7,CNS(=O)(=O)c1ccc(NC(=O)c2cc(-c3ccncc3)nc3ccc(Cl)cc23)cc1,14.7%
8,COc1nc(-c2ccccc2)ncc1S(=O)(=O)c1ccccc1,37.3%
9,c1ccn2cc(-c3ccc4c(c3)OCO4)cc2c1,25.7%
10,O=C(CSc1nnnn1C1CCCCC1)Nc1nc2c(s1)CCCC2,-8.47%
11,Cn1cccc1Cc1nnc(SCC(=O)NC2CCCC2)n1CCc1ccccc1,-13%
12,CC(Oc1ccc(C#N)cc1)C(=O)NC1CCCC1 (stereo not drawn),-12.9%
13,CCOC(=O)C1CCN(C(=O)C(=O)Nc2ccc3nc4n(c(=O)c3c2)CCCCC4)CC1,1.99%
14,Cc1nc(C)c(C(=O)C2=C(O)C(=O)N(CCN(C)C)C2c2ccccc2)s1 (stereo not drawn),13.4%
15,COc1ccccc1-c1nnc(SCC(=O)Nc2cc(C)on2)o1,9.62%
16,O=C(Cn1ccc([N+](=O)[O-])n1)c1ccccc1,7.16%
17,Cc1ccc(S(=O)(=O)N2CCN(C(=O)N3CCOCC3)C2C)cc1 (stereo not drawn),-6.82%
18,CCN1CCCC1CNC(=O)C1CCN(Cc2nc(-c3cccc(Br)c3)oc2C)CC1 (stereo not drawn),-9.4%
19,CCOC(=O)COc1ccc(Br)cc1/C=C/c1[nH]c(=O)[nH]c(=O)c1[N+](=O)[O-],8%
20,CC(C)(C)NC(=O)NC(=O)Cn1cc(C(F)(F)F)ccc1=O,-3.4%
21,COc1ccc(CC(=O)NNC(=O)c2ccccn2)cc1,3.86%
22,O=C(c1ccc(CN2CCc3ccccc3C2)cc1)N1CCN(c2ccc(F)cc2)CC1,-68.6%
